Binding signal data for 110 sequences are collected here from paper PMC6212790.

The list shows a part of the results. At the low end of the ranking the order means little.

This test has as its target T1, GST-Rok-C97-191 (UniProt O34857).
T1 sequence: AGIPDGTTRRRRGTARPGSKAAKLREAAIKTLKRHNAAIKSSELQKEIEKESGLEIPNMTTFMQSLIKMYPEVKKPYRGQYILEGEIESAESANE
As to the kind of experiment: protein binding microarray.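 Further: rank score from −0.5 (least bound) to 0.5 (best bound).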 The following applies: Rok is a gene silencer of Bacillus subtilis; high values mean tight binding; most listed sequences are background and not binding sites; double strand, one strand shown.
Sequence CCAGGTAC had a binding signal of -0.0667 E-score.
As for CAATTTCC, the figure is 0.0497 E-score; as for TCTTAGAA, 0.00431 E-score; as for AAATTAGT, 0.198 E-score.
Under ACTCCACC stands -0.101 E-score.
Sequence GCCTATAA displayed a binding signal of 0.185 E-score.
Under CAAAACGC stands -0.232 E-score; under AACTGCAC, 0.164 E-score.
Under CATTTGCC stands -0.118 E-score.
As for ACAAACAC, the figure is 0.13 E-score; as for GTCCATAA, -0.127 E-score.
The sequence ACTTAGCT registered a binding signal of 0.106 E-score.
As for CGATCACA, the figure is -0.102 E-score; as for CACTCATA, -0.000806 E-score.
Under ACCCTATG stands 0.0644 E-score; under AACGGCAA, 0.102 E-score; under ACCTGTCC, -0.25 E-score.
Turning to AGGCGAAA, the binding signal was -0.22 E-score.
Under TCTTGGAA stands -0.157 E-score.
As for CCACATAG, the figure is 0.14 E-score; as for ACTTAGTA, 0.308 E-score; as for GCTGCCTA, -0.0866 E-score.
Under CATTTCAC stands 0.0842 E-score.
In the case of ATCAATGA, the binding signal came to 0.033 E-score.
As for GCCGCGCA, the figure is -0.14 E-score; as for ATCCAACC, -0.154 E-score; as for GACTAAGC, -0.145 E-score.
Take AGTGATCC: the binding signal was -0.161 E-score.
Under CGAGTCTA stands -0.0403 E-score.
As for CGATTGCA, the figure is 0.0871 E-score; as for TCAGACGA, -0.198 E-score; as for AGAAACGA, 0.0449 E-score.
Under ACGTCCTC stands -0.191 E-score; under GCACTCAC, -0.0731 E-score.
Regarding AGTACATC, the binding signal was 0.273 E-score.
Under ATAGGCCA stands 0.0178 E-score; under GCCACCTA, -0.136 E-score; under GCAGAAGA, -0.104 E-score.
Under AGGACTCG stands -0.161 E-score; under CGATTAGA, -0.0399 E-score; under AAGTGTCT, -0.0685 E-score.
With CGCGAGCC, the binding signal was -0.167 E-score.
As for AAAAAAGT, the figure is -0.0319 E-score; as for CTATCAGC, -0.0263 E-score.
Under GGAGTTGA stands -0.137 E-score.
As for AGTGGAAT, the figure is -0.0459 E-score; as for GTAAGGTA, 0.162 E-score; as for CGGAGGAG, -0.243 E-score.
ATCTCCAA showed a binding signal of 0.115 E-score.
For the sequence ACGTGCCG, the binding signal was -0.148 E-score.
Regarding AACAGGTA, the binding signal is 0.0913 E-score.
As for GTCCTCAC, the figure is -0.133 E-score; as for GATGGTGC, -0.106 E-score; as for CCGAGCCG, -0.368 E-score.
With AGTGACGA, the binding signal came out at 0.00289 E-score.
As for ATATTTCC, the figure is 0.269 E-score; as for GGTTCGTA, -0.183 E-score; as for GACGTCCC, -0.341 E-score.
As for GGTGAACC, the figure is -0.195 E-score.
As for CAGCACAC, the figure is -0.111 E-score.
For CGCGTACG, the binding signal was 0.0594 E-score.
Under AATTACAG stands 0.249 E-score; under CTTCTGCA, -0.024 E-score; under CCCCTTGC, -0.421 E-score.
Under AACGTGAA stands 0.019 E-score; under CGCCAAAA, -0.192 E-score; under CACCCGTC, -0.0736 E-score.
Under AAGTCCTC stands -0.103 E-score; under AAAGGGTA, 0.143 E-score.
Consider AGAATCAA, for which the binding signal was 0.123 E-score.
As for GTATTTAA, the figure is 0.273 E-score; as for CCAGGAGA, 0.0367 E-score; as for AAGCGGCT, 0.111 E-score.
As for CCCGTGTA, the figure is 0.123 E-score.
As for GACCTGCA, the figure is -0.0827 E-score; as for ATCACCCG, 0.000296 E-score.
Sequence ACTGTAAG registered a binding signal of 0.000879 E-score.
As for CCCGCATC, the figure is -0.234 E-score; as for ACACATTA, 0.188 E-score; as for CGAGACAA, -0.00462 E-score.
As for AAACTACA, the figure is 0.387 E-score; as for TACTCAAA, -0.00786 E-score.
As for AGTTTGTC, the figure is 0.0866 E-score; as for GCCACAAC, -0.227 E-score; as for GATCCATC, -0.112 E-score.
In turn, AATTGTAT returned a binding signal of 0.235 E-score.
Under CAGTTGCC stands -0.243 E-score; under CAAGAATC, 0.0803 E-score.
Consider CAAATTGG, for which the binding signal is -0.0834 E-score.
Under CAAAACTC stands 0.162 E-score; under CATGATCG, -0.118 E-score; under ATGTTGGG, 0.0852 E-score.
Under TGACTAAA stands 0.0396 E-score.
As for CTTTCGCC, the figure is -0.0797 E-score.
TCGTAAAA yielded a binding signal of 0.184 E-score.
AGACGCAG yielded a binding signal of -0.17 E-score.
As for CATTCCGC, the figure is -0.168 E-score; as for CCATGTCA, -0.0435 E-score; as for AGCTCAGC, -0.187 E-score.
On to GGAGTCAC, for which the binding signal was -0.0785 E-score.
As for GAGGTGAC, the figure is -0.223 E-score.
As for CGGGTCGC, the figure is -0.173 E-score.
Under ATACAATC stands 0.175 E-score; under ATTAGTCA, 0.267 E-score.
The sequence ATGACGAG came in with a binding signal of -0.0694 E-score.
CTTCACTC: the binding signal was -0.166 E-score.
In turn, ACGACGTA came in with a binding signal of -0.122 E-score.
In the case of CCATTGAG, the binding signal was -0.0693 E-score.
As for GTTACCCA, the figure is 0.0211 E-score.
The sequence AATAGGGT gave a binding signal of 0.0409 E-score.
